± gives the standard deviation of the averaged measurements. The full ranking holds about 33,000 sequences; the median of “E-score (dimensionless, -0.5 to 0.5)” is about -0.049, and the highest 2% start at about 0.37. Some of the results follow.
test system: T1, PmTbr T-box DNA-binding domain (GST fusion); assay: PBM E-score of 8-mer (E-score (dimensionless, -0.5 to 0.5)); Tbr is Tbrain of the sea star Patiria miniata (Pm) or the sea urchin Strongylocentrotus purpuratus (Sp); higher = stronger binding preference; most listed sequences are background and not binding sites; conditions: the construct has about 5 more residues each side
T1 sequence: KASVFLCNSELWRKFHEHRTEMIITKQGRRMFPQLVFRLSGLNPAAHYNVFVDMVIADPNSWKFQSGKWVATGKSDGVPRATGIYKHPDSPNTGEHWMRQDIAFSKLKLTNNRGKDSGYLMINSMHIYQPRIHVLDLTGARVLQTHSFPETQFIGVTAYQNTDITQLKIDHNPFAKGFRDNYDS
Description: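 Universal protein-binding microarray (Agilent AMADID 016060, 60-bp probes with a 35-bp variable region) incubated with 200 nM GST-fused Patiria miniata Tbr T-box DNA-binding domain (residues 272-466) in PBS pH 7.5. Scored for every ungapped 8-mer (given with its reverse complement) by the Universal PBM Analysis Suite as E-score (modified Wilcoxon-Mann-Whitney enrichment, range -0.5 to 0.5; >0.45 counts as bound) and Z-score of median probe intensity. Two replicate arrays (datasets 1 and 2).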
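Note: 200 nM protein in PBS on universal arrays averaged over duplicate arrays.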

Row | Sequence | PBM E-score of 8-mer
1 | ACTTTGGC | 0.139 ± 0.01
2 | ACTATCGA | -0.0125 ± 0.02
3 | ATAAAACG | -0.0364 ± 0.081
4 | GATATGGA | -0.283 ± 0.013
5 | AGGTTCGG | -0.0825 ± 0.035
6 | ATACATTA | -0.3 ± 0.0049
7 | AGGCGACA | 0.3974 ± 0.0038
8 | ATCCGTGG | -0.2691 ± 0.0023
9 | AATCCGAA | -0.213 ± 0.06
10 | GCATTTCA | 0.00163 ± 0.038
11 | CAGGGAAA | -0.153 ± 0.074
12 | AAGCTGGC | 0.166 ± 0.015
13 | AGACCGGC | -0.0622 ± 0.026
14 | AATGTCCC | -0.366 ± 0.026
15 | GTACCCAA | -0.192 ± 0.013
16 | CACATCTA | 0.229 ± 0.0027
17 | CAGAACCC | -0.214 ± 0.0027
18 | CTGCCCTC | -0.067 ± 0.048
19 | GACTAGTC | -0.132 ± 0.06
20 | AGTATACC | -0.145 ± 0.046
21 | GCGACCAC | 0.0576 ± 0.051
22 | AGAACCGA | 0.0116 ± 0.0067
23 | CAGGTGCG | 0.4533 ± 0.0028
24 | AGTCGTGC | 0.032 ± 0.0093

Row | Sequence | PBM E-score of 8-mer
25 | AGGTCCCC | -0.314 ± 0.016
26 | ATGTTAGC | 0.0827 ± 0.022
27 | AGTTGCAC | 0.177 ± 0.0048
28 | ACTCAATC | 0.0926 ± 0.026
29 | TAGTTAGA | -0.127 ± 0.061
30 | ACGTTCGC | 0.191 ± 0.011
31 | CCATGAAC | -0.112 ± 0.039
32 | AGAACGGC | -0.0714 ± 0.038
33 | TATGGACA | -0.12 ± 0.033
34 | ACTGGCTC | -0.123 ± 0.0062
35 | AATCAACG | -0.118 ± 0.01
36 | CAAAAATA | -0.149 ± 0.035
37 | GGTTGTAC | 0.11 ± 0.012
38 | ATGAACGC | -0.0876 ± 0.052
39 | GTCGAAAC | 0.0209 ± 0.011
40 | GCCACGCC | 0.12 ± 0.026
41 | ATAGCGTC | 0.0818 ± 0.011
42 | CTACAGGC | -0.125 ± 0.0056
43 | CACTTCGA | 0.226 ± 0.011
44 | ACATGTTG | 0.185 ± 0.021
45 | CCAAATCC | 0.0777 ± 0.038
46 | GCGAGGGA | 0.181 ± 0.043
47 | ACATTTCC | -0.00451 ± 0.021
48 | GATTCAGC | -0.0931 ± 0.032

Row | Sequence | PBM E-score of 8-mer
49 | TCCTATAA | -0.189 ± 0.068
50 | CAATAATG | -0.126 ± 0.074
51 | GAAGACAA | 0.086 ± 0.051
52 | TGAAGAAA | -0.0329 ± 0.025
53 | GCCTAGAA | -0.0839 ± 0.072
54 | CTATCCGA | -0.271 ± 0.073
55 | CCACATCC | -0.102 ± 0.032
56 | CAGACTGG | -0.346 ± 0.062
57 | CGTCATGA | -0.156 ± 0.011
58 | ATACCGAG | -0.177 ± 0.04
59 | CGTGAACA | 0.321 ± 0.021
60 | AATTAGGC | -0.0602 ± 0.0089
61 | ATATGTGC | 0.2311 ± 0.0006
62 | CTCATTTC | -0.224 ± 0.033
63 | ACTGGTAC | -0.13 ± 0.064
64 | ATTTGCCC | -0.1 ± 0.039
65 | GGGTATTA | -0.139 ± 0.091
66 | ACGAGGTC | -0.113 ± 0.027
67 | ACCCGAAA | 0.153 ± 0.035
68 | GCGGGTAA | 0.118 ± 0.029
69 | AGCATTAT | 0.0593 ± 0.03
70 | CATAGAGG | -0.0262 ± 0.0062
71 | GGCCGTAC | -0.128 ± 0.052
72 | CAGTCATC | -0.128 ± 0.013

Row | Sequence | PBM E-score of 8-mer
73 | CCACCTGC | 0.299 ± 0.02
74 | CGTACCGA | -0.172 ± 0.048
75 | CCTTTCTC | -0.0361 ± 0.0053
76 | CTGCATCC | -0.296 ± 0.01
77 | ACAAACAA | -0.0529 ± 0.023
78 | ATATATTC | -0.227 ± 0.1
79 | CCTAATTA | -0.0641 ± 0.04
80 | CCCCCATC | -0.0234 ± 0.039
81 | AATCCGGC | -0.0482 ± 0.032
82 | GTCCTTAA | -0.25 ± 0.075
83 | TAGGTCAA | -0.24 ± 0.053
84 | CGTAATAG | -0.149 ± 0.052
85 | ATAGTCTA | -0.132 ± 0.032
86 | TCCGTCCA | -0.0963 ± 0.047
87 | CAAGTTTA | 0.161 ± 0.084
88 | GCGGTTAC | -0.0207 ± 0.021
89 | GATCGAAC | -0.0822 ± 0.031
90 | CCCAGTGC | -0.102 ± 0.043
91 | GTTTTGCA | 0.06 ± 0.033
92 | AGTTTCTG | 0.0153 ± 0.0032
93 | GAGCTTCA | -0.137 ± 0.0098
94 | AGCTCTCA | 0.0682 ± 0.023

From the supplement of paper PMC4166925
